# In paper PMC4336329 (PLoS ONE, 2015):
# In all, about 310,000 compounds went through this assay and about 2,200 (0.71%) showed an effect of 50% or more. Effects have a minus sign here. The list shows a part of the results.
# Molecular target: human ether-à-go-go-related gene (hERG) potassium channel (human, UniProt Q12809)
# Assay: primary screen, population patch clamp on CHO cells stably expressing hERG
# Sequence of human ether-à-go-go-related gene (hERG) potassium channel (Q12809 whole entry, looked up): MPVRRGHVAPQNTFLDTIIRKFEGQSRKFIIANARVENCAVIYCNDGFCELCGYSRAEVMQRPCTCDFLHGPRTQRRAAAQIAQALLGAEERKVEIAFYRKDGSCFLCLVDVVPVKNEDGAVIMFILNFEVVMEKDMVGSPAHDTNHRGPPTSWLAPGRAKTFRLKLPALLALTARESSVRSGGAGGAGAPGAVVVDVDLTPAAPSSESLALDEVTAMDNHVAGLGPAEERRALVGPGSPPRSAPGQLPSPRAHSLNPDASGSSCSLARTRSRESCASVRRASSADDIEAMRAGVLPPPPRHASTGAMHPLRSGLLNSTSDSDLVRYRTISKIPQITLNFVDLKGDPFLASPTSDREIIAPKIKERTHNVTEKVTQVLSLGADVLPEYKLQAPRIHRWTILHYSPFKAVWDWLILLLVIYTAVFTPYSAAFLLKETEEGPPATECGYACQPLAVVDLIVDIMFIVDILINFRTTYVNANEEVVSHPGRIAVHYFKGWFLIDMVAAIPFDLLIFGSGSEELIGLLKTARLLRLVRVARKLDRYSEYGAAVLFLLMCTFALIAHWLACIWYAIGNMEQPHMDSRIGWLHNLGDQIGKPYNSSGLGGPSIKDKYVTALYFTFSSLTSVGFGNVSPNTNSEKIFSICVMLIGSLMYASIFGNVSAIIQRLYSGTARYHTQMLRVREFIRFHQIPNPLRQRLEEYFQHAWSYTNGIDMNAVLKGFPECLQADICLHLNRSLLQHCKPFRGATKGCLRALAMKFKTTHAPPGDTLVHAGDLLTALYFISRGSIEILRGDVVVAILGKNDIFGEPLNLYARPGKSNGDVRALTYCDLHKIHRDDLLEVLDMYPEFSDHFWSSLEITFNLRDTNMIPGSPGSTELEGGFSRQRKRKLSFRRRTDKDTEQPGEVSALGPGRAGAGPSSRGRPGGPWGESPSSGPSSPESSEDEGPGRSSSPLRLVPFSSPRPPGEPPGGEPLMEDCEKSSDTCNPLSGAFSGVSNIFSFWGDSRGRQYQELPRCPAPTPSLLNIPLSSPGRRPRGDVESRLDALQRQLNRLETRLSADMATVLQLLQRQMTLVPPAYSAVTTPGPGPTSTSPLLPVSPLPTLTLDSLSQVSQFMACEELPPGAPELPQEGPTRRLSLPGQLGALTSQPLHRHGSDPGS
row,Structure (SMILES),"hERG current change (%, negative = inhibition) at 1uM [%]"
1,CN(C)Cc1ccccc1C(O)(c1ccccc1)c1ccccc1,6.19
2,O=c1c2ccccc2sn1-c1ccc(S(=O)(=O)N2CCCC2)cc1,10.2
3,COc1cc(CN2CCCC(N3CCN(c4ccccc4C)CC3)C2)cc(Cl)c1O (stereo not shown),-1.13
4,CN1CCN(S(=O)(=O)c2ccc(Nc3ccc(F)cc3)nc2)CC1,1.34
5,O=C(COc1ncnc2scc(-c3ccc(F)cc3)c12)NCc1ccco1,11.3
6,Cc1ccc(-c2nc3ncccn3c2Nc2ccc3c(c2)OCCO3)o1,10.5
7,O=C1CCCc2ccccc2N1Cc1ccccc1Cl,6.51
8,COC(=O)c1ccc2c(=O)n(CCO)c(=S)[nH]c2c1,10.4
9,CCC1CCCCN1CCCNC(=O)CC1Oc2ccccc2NC1=O (stereo not shown),2.01
10,COc1ccccc1NC(=O)c1ccccc1SC,2.85
11,CCOc1ccc(S(=O)(=O)n2cc(-c3ccc(F)cc3)c(N)n2)cc1,15.1
12,CCN(CC)S(=O)(=O)c1ccc(NCc2ccccn2)nc1,-1.99
13,Cc1ccc(C(=O)NCC(=O)N(C)CC(=O)Nc2ccccc2Br)s1,7.63
14,COCCn1c(C)cc(C(=O)COc2cccnc2[N+](=O)[O-])c1C,6.84
15,CC1CN(C(=S)Nc2cccc(F)c2)CC(C)O1 (stereo not shown),14.6
16,CCc1ccc(NC2=NC(C(=O)NC3CCCCC3)CC(=O)N2)cc1 (stereo not shown),12.1
17,CCCCc1ccc(S(=O)(=O)Nc2cc(C)on2)cc1,5.25
18,CCOc1ccccc1-c1ccc(C(=O)NCc2ccccc2)o1,3.8
19,CCn1cnc2cc(NCc3ccc(Br)cc3)ccc21,2.64
20,CCCCn1c(O)c(C(C)=Nc2c(C)n(C)n(-c3ccccc3)c2=O)c(=O)[nH]c1=O,9.91
21,O=C(Nc1ccc2oc(=O)ccc2c1)c1cc2ccccc2o1,7.53
22,N#Cc1nc(-c2cccs2)oc1NCc1ccc(Cl)cc1,-11.5

row,Structure (SMILES),"hERG current change (%, negative = inhibition) at 1uM [%]"
1,O=C(O)CCC(=O)Nc1ccccc1C(=O)NCc1ccccc1,12.6
2,Cc1nc2ncnn2c(C)c1CCC(=O)NCCc1ccccc1,8.47
3,CCOC(=O)C1CCCN(Cc2cc(=O)oc3cc(C)c(C(C)C)cc23)C1 (stereo not shown),9.25
4,COc1ccc(NC(=O)c2ccccc2N(Cc2ccccc2)S(C)(=O)=O)cc1OC,12.6
5,COc1ccc(-c2cn(CCN)c(-c3ccncc3)n2)cc1,11.4
6,CCn1c(=O)c(CCC(=O)NCC2CCCO2)c(C)c2c(C)nn(-c3ccc(C)cc3)c21 (stereo not shown),19.9
7,COc1cc(OC)c(C(=O)OCC(=O)NCCC2=CCCCC2)cc1OC,7.02
8,Cc1cc(C)c(S(=O)(=O)c2ccccc2)c(OC(=O)c2cc(F)c(F)cc2Cl)n1,10.4
9,CS(=O)(=O)N(CC(=O)Nc1ccc2c(c1)OCCO2)Cc1ccc(Cl)cc1,0.692
10,O=C(CN(C(=O)CCC(=O)Nc1nccs1)c1ccc(F)c(Cl)c1)NCc1ccco1,4.35
11,COc1ccccc1NS(=O)(=O)c1ccc2c(c1)NC(=O)C(C)S2 (stereo not shown),11.4
12,C#Cc1ccc([C@H]2C=C(C(=O)NCc3nc4ccccc4[nH]3)O[C@@H](OCc3ccc(CO)cc3)C2)cc1,8.42
13,COc1ccc(CCC(=O)NCCOc2ccccc2Cl)cc1,10.8
14,COC(=O)c1coc(-c2ccc(OC)cc2)c1C(=O)OC,8.33
15,Cn1c(O)c(/C=N/NC(=O)c2cc3ccccc3cc2O)c2ccccc21,22.4
16,CCCn1c(N2CCN(Cc3cccc(C)c3)CC2)nc2c1c(=O)[nH]c(=O)n2C,-9.58
17,CC1=CC(C)(C)N(C(=O)CNC2CCCCC2)c2cc(C)ccc21.O=C(O)C(=O)O,11
18,CC1CCN(C(=O)Cn2cnc3c2c(=O)n(C)c(=O)n3C)c2ccccc2S1 (stereo not shown),1.42
19,CCc1nn(CCCC(=O)NCc2ccc(OC(C)C)cc2)c(=O)c2cc3occc3n12,6.99
20,O=C(Nc1ccc(F)c(Cl)c1)Nn1cnnc1,0.762
21,Cc1cc(C)nc(SCC(=O)OC(C)C(=O)Nc2ccccc2)n1 (stereo not shown),14
22,Clc1ccc(-n2ncc3c(NCCN4CCOCC4)ncnc32)cc1,-5.98

row,Structure (SMILES),"hERG current change (%, negative = inhibition) at 1uM [%]"
1,CN1C2C=C3C(C#N)=C(N)C(C#N)(C#N)[C@H](c4c(F)cccc4F)[C@H]3C1CC2 (stereo partly shown),-3.18
2,CNC(=O)c1c(I)c(C(=O)NCC(=O)Nc2c(I)c(C(=O)O)c(I)c(C(=O)NCCO)c2I)c(I)c(N(C)C(C)=O)c1I,12.5
3,c1ccc2cc(-c3cc4ccccn4c3)ccc2c1,8.28
4,Cn1c(NCCO)nc2c(c1=O)C1(CCCCC1)Cc1ccccc1-2,8.03
5,CSc1nc(Cc2ccccc2)nc2ccccc12,18.9
6,O=C(COc1ccc2ccccc2c1)NNC(=O)c1cnccn1,0.23
7,CCCOc1ccc(/C=N\NC(=O)CCc2n[nH]c(=O)[nH]c2=O)cc1OC,11.6
8,COc1cc(C(=O)NCCNC(=O)C2CCCNC2=O)cc(OC)c1OC (stereo not shown),6.08
9,O=C(NN1C(=O)c2ccccc2NC1c1ccoc1)c1ccccc1 (stereo not shown),6.28
10,Cc1nc(C)c2c(=O)cc(-c3ccccc3)[nH]c2n1,-13.6
11,O=C(CN(c1ccccc1)S(=O)(=O)c1ccccc1[N+](=O)[O-])Nc1ccccc1C(=O)N1CCOCC1,16.6
12,Cc1ccc(Cn2c(=O)c3c(nc4n3CCCN4Cc3ccccc3)n(C)c2=O)cc1,10.5
13,O=C(NC(=S)Nc1ccc(N2CCCCC2)cc1)c1ccc2c(c1)OCCO2,6.31
14,O=S1(=O)CCC(NC(=S)SCCOc2ccccc2)C1 (stereo not shown),9.17
15,COc1ccccc1N1CCN(C(=O)c2n[nH]c3ccccc23)CC1,15.7
16,Cn1nc(-c2ccc(C(=O)NCC3CCCO3)cc2)c2ccccc2c1=O (stereo not shown),-2.8
17,O=C(Cn1cnc2ccccc2c1=O)Nc1ccc2c(c1)OCCO2,-11.6
18,O=C(O)CS(=O)CC(=O)NCc1cccc(C(F)(F)F)c1 (stereo not shown),12.6
19,CCCCn1nc(C(=O)Nc2ccc(S(=O)(=O)Nc3ncccn3)cc2)c2ccccc2c1=O,0.671
20,O=C(NC1CCCC1)C1CCN(C(=O)c2ccc(Cl)cc2)CC1,15.1
21,Cl.c1ccc(-c2ccccc2OCCOCCN2CCc3ccccc3C2)cc1,14.1
22,COc1ccc(CCN2C(=O)CCC2(C)C(=O)NC2CCCC2)cc1OC (stereo not shown),13.3

row,Structure (SMILES),"hERG current change (%, negative = inhibition) at 1uM [%]"
1,CC(=O)NS(=O)(=O)c1ccc(NC(=O)c2ccc(Br)o2)cc1,9.43
2,COc1ccc(CCNC(=O)c2cnn3cccnc23)cc1OC,6.54
3,Cc1cc(NC(=O)c2ccc(Cl)cc2)n(CCOC(=O)c2ccc(Cl)cc2)n1,5.06
4,CCC1Sc2ccc(S(=O)(=O)CCC(=O)NCc3ccc(C)o3)cc2NC1=O (stereo not shown),17.4
5,Cc1ccc(Cl)cc1NC(=O)C1C2CCC(O2)C1C(=O)O (stereo not shown),19.5
6,O=S(=O)(Nc1ncnc2sc3c(c12)CCC3)c1cc(F)ccc1F,0.24
7,Cc1nc2ccccn2c1C(=O)N/N=C/c1ccc([N+](=O)[O-])cc1,6.81
8,O=C(O)C1CC1C(=O)Nc1cc(F)ccc1F (stereo not shown),7.57
9,O=C(NCc1cc2ccccc2[nH]1)c1ccccc1F,17.4
10,CCOc1ccc(S(=O)(=O)Nc2cccc(C(=O)NCCCN3CCOCC3)c2)cc1,1.71
11,COc1cccc(CN2CCN(S(=O)(=O)c3ccc(Br)cc3)CC2)c1,-4.03
12,O=C(NCC1CCCO1)C(=O)N/N=C/c1ccccc1C(=O)O (stereo not shown),17.1
13,COC(=O)c1cc(S(=O)(=O)n2nc(C)c(Br)c2C)c(Cl)cc1Cl,10.1
14,Cc1ccc(S(=O)(=O)N(C)CCCC(=O)Nc2ccc(F)cc2)cc1,3.19
15,Cc1cc(/C=C2/NC(=O)N(Cc3ccccc3F)C2=O)c(C)n1C,4.99
16,Cc1nc(SCc2c(Cl)cccc2Cl)nc(OC(=O)N(C)C)c1C,15.3
17,COc1ccc(NC(=O)CCn2c(=S)[nH]c3ccccc3c2=O)cc1OC,17.6
18,CC1CN(C(=S)Nc2ccc(Br)cc2Cl)CC(C)O1 (stereo not shown),0.599
19,O=C(CSc1nc2ccccc2s1)c1cc2ccccc2o1,-4.81
20,COc1ccc(/C=C2\SC(=O)N(CCNC(=O)CN3C(=O)NC4(CCCC4)C3=O)C2=O)cc1,5.33
21,Cc1ccc2nc(SCC(=O)N(CC(C)C)c3c(N)n(CC(C)C)c(=O)[nH]c3=O)[nH]c2c1,12.2
22,COc1ccc(C(=O)NCC(=O)N=Nc2c(O)n(Cc3ccccc3)c3ccccc23)cc1OC,4.7
